# Reference: the supplement of paper PMC10037445
# Over roughly 2,900 compounds, “NF-kB SEAP reporter activity, fold change vs agonist alone” has its median near 0.99; the highest 2% begin near 2.6. The list shows a part of the results.
# Assays:
# RAW-Dual [1] = assay: NF-kB SEAP reporter activity, fold change vs agonist alone; higher = enhanced NF-kB activity; settings: library stock concentration (final ~1000-fold dilution): 10 mM
# In short: (§1)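 After 50 nL of library stock was delivered by pin tool to RAW-Dual macrophages (50,000 cells/well, DMEM, 384-well plates), a PRR agonist was added 1 h later and the plates were kept at 37 °C, 5% CO2. Twenty hours later, IRF was read from supernatant by QuantiLuc luminescence and NF-κB by QuantiBlue absorbance at 620 nm. Reporter activity is stated as fold change over agonist-alone wells. Wells with IncuCyte confluency under 70% of agonist controls in both mask sets were counted as cytotoxic.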
# RAW-Dual [2] = assay: NF-kB SEAP reporter activity, fold change vs agonist alone; cytotoxicity flag (confluency mask): cytotoxic (confluency <70% of control); higher = enhanced NF-kB activity
# In short: as §1
# RAW-Dual [3] = assay: NF-kB SEAP reporter activity, fold change vs agonist alone; cytotoxicity flag (confluency mask): not cytotoxic; higher = enhanced NF-kB activity
# In short: as §1
# [4] = cytotoxicity flag (confluency mask): cytotoxic (confluency <70% of control), agonist: Imiquimod (TLR7) […]
# [5] = cytotoxicity flag (confluency mask): cytotoxic (confluency <70% of control), agonist: MPLA (TLR4) […]
# [6] = agonist: ODN 1826 (TLR9) 0.5 ug/mL
# [7] = agonist: Pam2CSK4 (TLR2/6) 0.1 ug/mL
# [8] = agonist: Pam3CSK4 (TLR2/1) 0.1 ug/mL
# [9] = cytotoxicity flag (confluency mask): not cytotoxic, agonist: Imiquimod (TLR7) […]
# [10] = cytotoxicity flag (confluency mask): not cytotoxic, agonist: MPLA (TLR4) […]
structure (smiles),measurement,setting,value
Cc1ccc(C(=O)N(CCCN)C(c2nc3cc(Cl)ccc3c(=O)n2Cc2ccccc2)C(C)C)cc1 (stereo not drawn),NF-kB SEAP reporter activity,RAW-Dual [1]; [4],1.41
same,NF-kB SEAP reporter activity,RAW-Dual [1]; [5],0.878
Cc1ccc(C(=O)N(CCCN)C(c2nc3cc(Cl)ccc3c(=O)n2Cc2ccccc2)C(C)C)cc1 (stereo not drawn) (library stock concentration (final ~1000-fold dilution): 10 mM),NF-kB SEAP reporter activity,RAW-Dual [2]; agonist: LPS (TLR4) 0.1 ug/mL,0.331
same,NF-kB SEAP reporter activity,RAW-Dual [2]; [6],0.254
same,NF-kB SEAP reporter activity,RAW-Dual [2]; [7],0.0886
same,NF-kB SEAP reporter activity,RAW-Dual [2]; [8],0.27
COc1cc(C(=O)N(CCCc2ccccc2)Cc2ccc(CC(=O)O)cc2)cc(OC)c1C (library stock concentration (final ~1000-fold dilution): 10 mM),NF-kB SEAP reporter activity,RAW-Dual [3]; agonist: LPS (TLR4) 0.1 ug/mL,1.19
same,NF-kB SEAP reporter activity,RAW-Dual [3]; [6],0.976
same,NF-kB SEAP reporter activity,RAW-Dual [3]; [7],0.823
same,NF-kB SEAP reporter activity,RAW-Dual [3]; [8],0.908
COc1cc(C(=O)N(CCCc2ccccc2)Cc2ccc(CC(=O)O)cc2)cc(OC)c1C,NF-kB SEAP reporter activity,RAW-Dual [1]; [9],1.1
same,NF-kB SEAP reporter activity,RAW-Dual [1]; [10],1.11
O=C(O)c1cc(O)c2ccccc2n1,NF-kB SEAP reporter activity,RAW-Dual [1]; [10],1.1
O=C(O)c1cc(O)c2ccccc2n1 (library stock concentration (final ~1000-fold dilution): 10 mM),NF-kB SEAP reporter activity,RAW-Dual [3]; agonist: LPS (TLR4) 0.1 ug/mL,0.956
same,NF-kB SEAP reporter activity,RAW-Dual [3]; [6],1
same,NF-kB SEAP reporter activity,RAW-Dual [3]; [7],1.08
same,NF-kB SEAP reporter activity,RAW-Dual [3]; [8],1.18
CCc1ccc(CCOc2ccc(CC3SC(=O)NC3=O)cc2)nc1.Cl (stereo not drawn),NF-kB SEAP reporter activity,RAW-Dual [1]; [9],2.15
same,NF-kB SEAP reporter activity,RAW-Dual [1]; [10],1.76
CCc1ccc(CCOc2ccc(CC3SC(=O)NC3=O)cc2)nc1.Cl (stereo not drawn) (library stock concentration (final ~1000-fold dilution): 10 mM),NF-kB SEAP reporter activity,RAW-Dual [3]; agonist: LPS (TLR4) 0.1 ug/mL,1.03
same,NF-kB SEAP reporter activity,RAW-Dual [3]; [6],1.59
same,NF-kB SEAP reporter activity,RAW-Dual [3]; [7],1.07
same,NF-kB SEAP reporter activity,RAW-Dual [3]; [8],1.37
O=C(NNS(=O)(=O)c1ccccc1F)c1cc(F)cc(-c2ccccn2)c1 (library stock concentration (final ~1000-fold dilution): 10 mM),NF-kB SEAP reporter activity,RAW-Dual [3]; agonist: LPS (TLR4) 0.1 ug/mL,1.23
same,NF-kB SEAP reporter activity,RAW-Dual [3]; [6],1.2
same,NF-kB SEAP reporter activity,RAW-Dual [3]; [7],1.21
same,NF-kB SEAP reporter activity,RAW-Dual [3]; [8],1.12
O=C(NNS(=O)(=O)c1ccccc1F)c1cc(F)cc(-c2ccccn2)c1,NF-kB SEAP reporter activity,RAW-Dual [1]; [9],0.918
same,NF-kB SEAP reporter activity,RAW-Dual [1]; [10],1.3
CN(CC(=O)N(Cc1ccc(C2CCCCC2)cc1)c1ccc(C(=O)NO)cc1)S(=O)(=O)c1c(F)c(F)c(F)c(F)c1F (library stock concentration (final ~1000-fold dilution): 10 mM),NF-kB SEAP reporter activity,RAW-Dual [3]; agonist: LPS (TLR4) 0.1 ug/mL,0.324
same,NF-kB SEAP reporter activity,RAW-Dual [3]; [6],1.53
same,NF-kB SEAP reporter activity,RAW-Dual [3]; [7],0.374
same,NF-kB SEAP reporter activity,RAW-Dual [3]; [8],0.284
CN(CC(=O)N(Cc1ccc(C2CCCCC2)cc1)c1ccc(C(=O)NO)cc1)S(=O)(=O)c1c(F)c(F)c(F)c(F)c1F,NF-kB SEAP reporter activity,RAW-Dual [1]; [9],1.3
same,NF-kB SEAP reporter activity,RAW-Dual [1]; [10],1.02
O=C1CCc2c(ccc3ccccc23)O1 (library stock concentration (final ~1000-fold dilution): 10 mM),NF-kB SEAP reporter activity,RAW-Dual [3]; agonist: LPS (TLR4) 0.1 ug/mL,0.939
same,NF-kB SEAP reporter activity,RAW-Dual [3]; [6],1.03
same,NF-kB SEAP reporter activity,RAW-Dual [3]; [7],1.06
same,NF-kB SEAP reporter activity,RAW-Dual [3]; [8],0.968
O=C1CCc2c(ccc3ccccc23)O1,NF-kB SEAP reporter activity,RAW-Dual [1]; [9],0.981
same,NF-kB SEAP reporter activity,RAW-Dual [1]; [10],1.04
C[C@@H]1O[C@@H](O[C@@H]2C(=O)c3c(O)cc(O)cc3O[C@H]2c2ccc(O)c(O)c2)[C@H](O)[C@H](O)[C@H]1O (library stock concentration (final ~1000-fold dilution): 10 mM),NF-kB SEAP reporter activity,RAW-Dual [3]; agonist: LPS (TLR4) 0.1 ug/mL,1.31
same,NF-kB SEAP reporter activity,RAW-Dual [3]; [6],1.15
same,NF-kB SEAP reporter activity,RAW-Dual [3]; [7],1.19
same,NF-kB SEAP reporter activity,RAW-Dual [3]; [8],1.01
C[C@@H]1O[C@@H](O[C@@H]2C(=O)c3c(O)cc(O)cc3O[C@H]2c2ccc(O)c(O)c2)[C@H](O)[C@H](O)[C@H]1O,NF-kB SEAP reporter activity,RAW-Dual [1]; [9],0.982
same,NF-kB SEAP reporter activity,RAW-Dual [1]; [10],1.02
Cc1c(OCC(F)(F)F)ccnc1C[S+]([O-])c1nc2ccccc2[nH]1 (stereo not drawn) (library stock concentration (final ~1000-fold dilution): 10 mM),NF-kB SEAP reporter activity,RAW-Dual [3]; agonist: LPS (TLR4) 0.1 ug/mL,0.783
same,NF-kB SEAP reporter activity,RAW-Dual [3]; [6],1.13
same,NF-kB SEAP reporter activity,RAW-Dual [3]; [7],0.958
same,NF-kB SEAP reporter activity,RAW-Dual [3]; [8],1
Cc1c(OCC(F)(F)F)ccnc1C[S+]([O-])c1nc2ccccc2[nH]1 (stereo not drawn),NF-kB SEAP reporter activity,RAW-Dual [1]; [9],1.02
same,NF-kB SEAP reporter activity,RAW-Dual [1]; [10],0.964
CC(O)COCC1OC2OC3C(COCC(C)O)OC(OC4C(COCC(C)O)OC(OC5C(COCC(C)O)OC(OC6C(COCC(C)O)OC(OC7C(COCC(C)O)OC(OC8C(COCC(C)O)OC(OC1C(O)C2O)C(O)C8O)C(O)C7O)C(O)C6O)C(O)C5O)C(O)C4O)C(O)C3O (stereo not drawn) (library stock concentration (final ~1000-fold dilution): 10 mM),NF-kB SEAP reporter activity,RAW-Dual [3]; agonist: LPS (TLR4) 0.1 ug/mL,1.3
same,NF-kB SEAP reporter activity,RAW-Dual [3]; [6],0.982
same,NF-kB SEAP reporter activity,RAW-Dual [3]; [7],1.22
same,NF-kB SEAP reporter activity,RAW-Dual [3]; [8],0.794
CC(O)COCC1OC2OC3C(COCC(C)O)OC(OC4C(COCC(C)O)OC(OC5C(COCC(C)O)OC(OC6C(COCC(C)O)OC(OC7C(COCC(C)O)OC(OC8C(COCC(C)O)OC(OC1C(O)C2O)C(O)C8O)C(O)C7O)C(O)C6O)C(O)C5O)C(O)C4O)C(O)C3O (stereo not drawn),NF-kB SEAP reporter activity,RAW-Dual [1]; [10],1.1
COc1cc2c(Oc3ccc4[nH]c(C)cc4c3F)ncnc2cc1OCCCN1CCCC1.O=C(O)/C=C\C(=O)O (library stock concentration (final ~1000-fold dilution): 10 mM),NF-kB SEAP reporter activity,RAW-Dual [2]; agonist: LPS (TLR4) 0.1 ug/mL,2.81
same,NF-kB SEAP reporter activity,RAW-Dual [2]; [6],0.402
same,NF-kB SEAP reporter activity,RAW-Dual [2]; [7],1.61
same,NF-kB SEAP reporter activity,RAW-Dual [2]; [8],1.15
COc1cc2c(Oc3ccc4[nH]c(C)cc4c3F)ncnc2cc1OCCCN1CCCC1.O=C(O)/C=C\C(=O)O,NF-kB SEAP reporter activity,RAW-Dual [1]; [5],2.65
CCCC(NC(=O)C1C2CCCC2CN1C(=O)C(NC(=O)C(NC(=O)c1cnccn1)C1CCCCC1)C(C)(C)C)C(=O)C(=O)NC1CC1 (stereo not drawn) (library stock concentration (final ~1000-fold dilution): 10 mM),NF-kB SEAP reporter activity,RAW-Dual [3]; agonist: LPS (TLR4) 0.1 ug/mL,1.3
same,NF-kB SEAP reporter activity,RAW-Dual [3]; [6],0.887
same,NF-kB SEAP reporter activity,RAW-Dual [3]; [7],0.68
same,NF-kB SEAP reporter activity,RAW-Dual [3]; [8],0.601
CCCC(NC(=O)C1C2CCCC2CN1C(=O)C(NC(=O)C(NC(=O)c1cnccn1)C1CCCCC1)C(C)(C)C)C(=O)C(=O)NC1CC1 (stereo not drawn),NF-kB SEAP reporter activity,RAW-Dual [1]; [9],0.65
same,NF-kB SEAP reporter activity,RAW-Dual [1]; [10],1.02
COc1cc2ncnc(Nc3cc(Br)c(O)c(Br)c3)c2cc1OC,NF-kB SEAP reporter activity,RAW-Dual [1]; [9],0.787
same,NF-kB SEAP reporter activity,RAW-Dual [1]; [10],1.53
COc1cc2ncnc(Nc3cc(Br)c(O)c(Br)c3)c2cc1OC (library stock concentration (final ~1000-fold dilution): 10 mM),NF-kB SEAP reporter activity,RAW-Dual [3]; agonist: LPS (TLR4) 0.1 ug/mL,2.14
same,NF-kB SEAP reporter activity,RAW-Dual [3]; [6],0.951
same,NF-kB SEAP reporter activity,RAW-Dual [3]; [7],0.984
same,NF-kB SEAP reporter activity,RAW-Dual [3]; [8],0.757
O=S(=O)(N=Cc1c(O)ccc2ccccc12)c1cccs1,NF-kB SEAP reporter activity,RAW-Dual [1]; [9],0.768
same,NF-kB SEAP reporter activity,RAW-Dual [1]; [10],1.03
O=S(=O)(N=Cc1c(O)ccc2ccccc12)c1cccs1 (library stock concentration (final ~1000-fold dilution): 10 mM),NF-kB SEAP reporter activity,RAW-Dual [3]; agonist: LPS (TLR4) 0.1 ug/mL,1.28
same,NF-kB SEAP reporter activity,RAW-Dual [3]; [6],0.662
same,NF-kB SEAP reporter activity,RAW-Dual [3]; [7],1.04
same,NF-kB SEAP reporter activity,RAW-Dual [3]; [8],0.853
Fc1ccc(CNc2ncnc3ccc(F)cc23)cc1,NF-kB SEAP reporter activity,RAW-Dual [1]; [9],0.988
same,NF-kB SEAP reporter activity,RAW-Dual [1]; [10],1.47
Fc1ccc(CNc2ncnc3ccc(F)cc23)cc1 (library stock concentration (final ~1000-fold dilution): 10 mM),NF-kB SEAP reporter activity,RAW-Dual [3]; agonist: LPS (TLR4) 0.1 ug/mL,2.47
same,NF-kB SEAP reporter activity,RAW-Dual [3]; [6],1.19
same,NF-kB SEAP reporter activity,RAW-Dual [3]; [7],1.06
same,NF-kB SEAP reporter activity,RAW-Dual [3]; [8],1.25
CS(=O)(=O)O.Cc1ccc(NC(=O)c2ccc(CN3CCN(C)CC3)cc2)cc1Nc1nccc(-c2cccnc2)n1,NF-kB SEAP reporter activity,RAW-Dual [1]; [4],1.24
same,NF-kB SEAP reporter activity,RAW-Dual [1]; [5],1.46
CS(=O)(=O)O.Cc1ccc(NC(=O)c2ccc(CN3CCN(C)CC3)cc2)cc1Nc1nccc(-c2cccnc2)n1 (library stock concentration (final ~1000-fold dilution): 10 mM),NF-kB SEAP reporter activity,RAW-Dual [2]; agonist: LPS (TLR4) 0.1 ug/mL,1.29
same,NF-kB SEAP reporter activity,RAW-Dual [2]; [6],0.201
same,NF-kB SEAP reporter activity,RAW-Dual [2]; [7],1.13
same,NF-kB SEAP reporter activity,RAW-Dual [2]; [8],1.25
